Biological target: T1, HuNb1-IgG4
T1 construct: humanized VHH of the camel anti-CD47 nanobody Nb1; VHH subcloned into the vector pFUSE-hIgG4-Fc2; also called humanized Nb1-IgG4; CD47 Nb
Assay: BLI; Octet Red 96; Nb-IgG4 (5 μg/mL) coupled to protein A sensors, series diluted hCD47 (ECD)-Fc in solution, dissociation in PBST; 1:1 global fit
Conditions: both partners purified

T1 sequence (heavy, as listed by the source): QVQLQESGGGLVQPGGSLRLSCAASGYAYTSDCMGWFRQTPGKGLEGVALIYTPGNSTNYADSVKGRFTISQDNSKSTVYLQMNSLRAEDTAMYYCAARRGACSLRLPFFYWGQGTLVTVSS

Kd: 4.85 nM
B1: hCD47 (ECD)-Fc (Fc fusion)
chain: not shown
notes: human CD47 ectodomain (ECD), […]; Cloned into a pFUSE vector; also called human CD47 (ECD)-Fc; recombinant hCD47 antigen
